{"source": "ChEMBL document CHEMBL1201862", "about": "“PubChem BioAssay data set” (2004)", "note": "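96-well plates; 48 h exposure; 5 concentrations. Endpoints by linear interpolation between flanking doses. Not reached: highest tested concentration assigned. GI50 marks 50% less growth.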 The source made the active and inactive calls. No stated cut-off is given here; in the data, active = GI50 up to about 1.1 µM and inactive = higher. Numbered stars: 1 amine (or outer) side, 2 acyl side, 3 side chain; on linkers, the order of the positions; unused ones are H or OH. Bridge positions count the residues as written; N and C are the ends. Square brackets hold non-standard residues; d marks the D form. Peptide text beside a SMILES is read from it. ξ: configuration not given here. X30 = CCC(C)C(N[*:1])C(O)CC(=O)O[C@H](C(=O)C(C)C(=O)[*:2])C(C)C; X29 = O=C([C@@H]1CC(O)CN1[*:1])[*:2]; NMeY = CN[C@@H](Cc1ccc(O)cc1)C(=O)O; ξNMeL = CNC(CC(C)C)C(=O)O; ξT = CC(O)C(N)C(=O)O"}
{"system": "NCI-H322M", "experiment": "DTP human tumour cell line panel, 48 h"}
{"compound": "O=C1NC(Cc2ccc(O)cc2)C(=O)NC1Cc1ccc(O)cc1", "note": "(configuration not stated)", "GI50": "inactive: > 100 µM"}
{"compound": "CCN(CC)C(=S)/N=C(\\SC(=S)N(CC)CC)c1ccccc1", "GI50": "inactive: > 51.1 µM"}
{"compound": "Cc1nc(C)c(N2CCN(C(=O)NC(CCC(=O)O)C(=O)O)CC2)c(O)n1", "note": "(configuration not stated)", "GI50": "inactive: > 100 µM"}
{"compound": "COCC(=O)OC1CCn2c1nc1c2C(=O)C(C)=C(NC(C)=O)C1=O", "note": "(configuration not stated)", "GI50": "inactive: 18.5 µM"}
{"compound": "Cc1nc2sc(CCl)nn2c(=O)c1Cl", "GI50": "inactive: 16.9 µM"}
{"compound": "CCOc1ccc(NC(=O)C(=O)CC(=O)c2c[n+]([O-])c3cc(C)c(C)cc3[n+]2[O-])cc1", "GI50": "inactive: > 100 µM"}
{"compound": "C=CC(Br)(CBr)CCC1OC1(C)C", "note": "(configuration not stated)", "GI50": "inactive: 28.7 µM"}
{"compound": "C=C1C2CCC3(CCC4C5(C)CCCC4(C=[N+](CCO)C5)C3C2)C1O", "note": "(configuration not stated)", "GI50": "inactive: > 100 µM"}
{"compound": "O=C1C(=Cc2ccc(O)cc2)N=C(c2ccccc2)N1n1c(-c2ccccc2)nc2ccccc2c1=O", "GI50": "inactive: 74.6 µM"}
{"compound": "C[C@@]12CCC3C1C=C1C(=O)c4cc(O)ccc4C(=O)[C@]1(O2)[C@@]3(C)C=O", "GI50": "inactive: 9.12 µM"}
{"compound": "CCC1NC(=O)C1NC(=O)OC", "note": "(configuration not stated)", "GI50": "inactive: > 100 µM"}
{"compound": "C#C[C@]1(O)[C@@H](CO)O[C@@H](n2ccc(=O)[nH]c2=O)[C@@H]1O", "GI50": "active: 0.248 µM"}
{"compound": "Clc1ccc2c(c1)[nH]c1c2nc2ccccn21", "GI50": "inactive: 39 µM"}
{"compound": "COC(=O)/C(=C\\Nc1cccc(C)n1)S(=O)(=O)c1ccc(C)cc1", "GI50": "inactive: > 100 µM"}
{"compound": "COC(=O)c1c(C(=O)OC)c(-c2ccccc2)n(-c2ccccc2)c(=O)c1-c1ccccc1", "GI50": "inactive: > 100 µM"}
{"compound": "ClCCCc1ccccc1C1=NCCc2ccccc21", "GI50": "inactive: > 100 µM"}
{"compound": "O=C(CCc1cc(O)cc(O)c1)NCCc1cc(OCc2ccccc2)cc(OCc2ccccc2)c1", "GI50": "inactive: 18.9 µM"}
{"compound": "NC(=O)c1ncn(C2OC(CO)C(O)C2O)c1NC(=S)NC(=O)c1ccccc1", "note": "(configuration not stated)", "GI50": "inactive: > 100 µM"}
{"compound": "CCOC(=O)C1C2CCC(C2)C1(CCl)C(=O)OCC", "note": "(configuration not stated)", "GI50": "inactive: > 100 µM"}
{"compound": "COc1cc2c(NCCCCCO)ncnc2c(OC)c1OC", "GI50": "inactive: > 100 µM"}
{"compound": "COc1ccc(/C=N/n2c(C)n[nH]c2=O)cc1", "GI50": "inactive: > 100 µM"}
{"compound": "CC(=O)Nc1ccc(/C=c2\\sc3nnc(-c4cccnc4)n3c2=O)cc1", "GI50": "inactive: 33.8 µM"}
{"compound": "CCCCCCCCCCCCC(CCCCCCCCCCCC)OP(=O)(O)O", "GI50": "inactive: > 100 µM"}
{"compound": "Cc1cccc2[s+]snc12", "GI50": "inactive: > 100 µM"}
{"compound": "CC(C)(C)OC/C=C1\\C(=O)O[C@H]2C[C@@H](O[Si](C)(C)C(C)(C)C)C[C@@H]12", "GI50": "inactive: > 100 µM"}
{"compound": "O=C1NC(=O)C(CCC(=O)c2ccc3ccccc3c2)C(=O)N1", "GI50": "inactive: > 100 µM"}
{"compound": "O=C1[C@@H](O)[C@@H]2CCCC[C@@]23CCCN13", "GI50": "inactive: > 100 µM"}
{"compound": "CCC(C)C1NC(=O)C(NC(=O)C(CC(C)C)N(C)C(=O)[C@@H]2CC(O)CN2)C(C)OC(=O)[C@H](Cc2ccc(OC)cc2)N(C)C(=O)[C@@H]2CCCN2C(=O)[C@H](CC(C)C)NC(=O)C(C)C(=O)[C@H](C(C)C)OC(=O)CC1O", "note": "(some centres not stated) (H-[X29][ξNMeL][ξT][X30]LP[NMeY](Me); ester 3-C)", "GI50": "active: 0.0157 µM"}
{"compound": "O=C(/C=C1\\Nc2ccccc2N=C1NC12CC3CC(CC(C3)C1)C2)c1ccc(Br)cc1", "GI50": "inactive: > 10 µM"}
{"compound": "CSc1nnc2n1-c1ccccc1SCC2", "GI50": "inactive: > 100 µM"}
{"compound": "Cc1ccc(S(=O)(=O)c2c3nc4ccccc4nc3n3c2[nH]c2ccccc23)cc1", "GI50": "inactive: 70 µM"}
{"compound": "CN1c2ccccc2C2=C(c3ccccc3)CC[C@@H](C(=O)N3C4CC5CC[C@@]4(CS3(=O)=O)C5(C)C)[C@@H]21", "note": "(some centres not stated)", "GI50": "inactive: > 100 µM"}
{"compound": "NC1=Nc2ccccc2Sc2cccc(F)c21", "GI50": "inactive: > 100 µM"}
{"compound": "Cc1ccc2c(c1)C(=O)/C(=N/Nc1ccc(Cl)cc1)CCO2", "GI50": "inactive: > 100 µM"}
{"compound": "O=c1c2ccc3cccc4c(=O)cc(c5ccccc15)-c2c34", "GI50": "inactive: > 100 µM"}
{"compound": "CCCCc1ccc(-n2sc3ncc([N+](=O)[O-])cc3c2=O)cc1", "GI50": "inactive: 8.07 µM"}
{"compound": "N#CC(c1ccnc(Cl)n1)c1nc2ccccc2s1", "note": "(configuration not stated)", "GI50": "inactive: 14.3 µM"}
{"compound": "CN1C/C(=C\\C=C\\c2ccccc2)C(=O)/C(=C/C=C/c2ccccc2)C1", "GI50": "inactive: > 100 µM"}
{"compound": "COc1cccc(Nc2nc(NNC(=O)Cc3ccccc3)nc(NNC(=O)c3ccncc3)n2)c1", "GI50": "inactive: > 10 µM"}
{"compound": "CC(=O)c1cccc(Nc2nc3ccc(Cl)cc3c3[nH]c4ccccc4c23)c1", "GI50": "inactive: 4.7 µM"}
{"compound": "CC(C)N(C(=O)C12C3C4C1(I)C1C2C3(I)C41C(=O)N(C(C)C)C(C)C)C(C)C", "note": "(configuration not stated)", "GI50": "inactive: > 100 µM"}
{"compound": "COC(=O)CCC(=O)Nc1ccc(Cl)cc1C", "GI50": "inactive: > 73.5 µM"}
{"compound": "O=C1CC2OCC=C3CN4CCC5(C(=O)O)C(N1)C2C3CC45", "note": "(configuration not stated)", "GI50": "inactive: > 100 µM"}
{"compound": "NC1=NN(c2ccccc2)C(=O)C1/C(=N\\NC(=O)c1cc2ccccc2cc1O)C(=O)Nc1nc([N+](=O)[O-])cs1", "note": "(configuration not stated)", "GI50": "inactive: 24.6 µM"}
{"compound": "Cc1cn(CCCCCCC2=NCCCN2)c(=O)[nH]c1=O", "GI50": "inactive: > 100 µM"}
{"compound": "CCOP(=O)(OCC)/C(=C\\N1C(=O)CC(=O)NC1=S)C(=O)OC", "GI50": "inactive: > 100 µM"}
{"compound": "C=CC(=O)N1C/C(=C\\c2ccc([N+](=O)[O-])cc2)C(=O)/C(=C/c2ccc([N+](=O)[O-])cc2)C1", "GI50": "active: 0.794 µM"}
